Assay results published in the RNAGym collection of RNA variant scans (doi:10.1073/pnas.2313332121).
Variants at the floor of the assay are shown more often than the library holds them.

B1: TPR 5TU (parent)
chain: GGAUCUUCUCGAUCUAACAAAAAAGACAAAUCUGCCACAAAGCUUGAGAGCAUCUUCGGAUGCAGAGGCGGCAGCCUUCGGUGGCGCGAUAGCGCCAACGUUCUCAACUAUGACACGCAAAACGCGUGCUCCGUUGAAUGGAGUUUAUCAUG

Variants of: B1
Assay: polymerase ribozyme fitness, log enrichment relative to wild type (log ratio); higher = more active; in vitro selection for triplet polymerase activity
How it was run: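 Genotype fitness is the logarithm of its enrichment divided by wild-type enrichment, using inverse-variance-weighted averages of replicates. That logarithm is base 2. Enrichment was measured by Illumina sequencing of input and output libraries from one triplicate in vitro selection round, with frozen incubation at −7 °C, on PCR-built, transcribed mutant libraries of each subunit of a heterodimeric triplet polymerase ribozyme, retaining genotypes with ≥10 input reads and ≥1 read per output.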

Polymerase ribozyme fitness (log ratio), ≤ -4.2:
GGAUCUUCUCAAUCUAACAUAAAAGGCAAAUCUGCCACAAAGCUUGAGACCAUCUUGGGAUGCAGAGGCGGCAGCCUUCGGUGGCGUGAUAGCGCCAACGUUCUCAACUAUGACACGCAAAACGCGUGCUCCGUUGAAUGGUGUUUAUCAUG
GGAUCUUCUCAAUCUAACAACAACGACAAAUCUGCCACAAAGUUUGAGAGCAUCUUCGGAUGCAGAGGCGGCAGCCUUCGGUGGAGCGAUAGCGCCAACGUUCUCAACUACGACACGCAAAACGCGUGCUCCGUUGAAUGGAGUUUAUCAUG
GGAUCUUCUCAAUCUAACAACAAAGACAGAUCCGCCACAAAGCUUGAGAGCAUCUUCGGAUGCAGAGGCGGCAGCCUUCGGUGGCGCGAUAGCGCCAACGUUCUCAACUAUGACACACAAAACGCGUGCUCCGUUGAAUGGAUUUUAUCAUG
GGAUCUUCUCAAUCUAACAAUAAAGACAAAUCUGCCACAAAGCUUGAGAGCAUCUUCGGAUGCAGAGGCGGCAGCCUUCGGUGGCGAGAUAGCGCCAACGUUCUCAACUAUGACACGCAAAACGCGUGCUCCGUUGAAUGGAGUUUAUCAUG
GGAUCUUCUCAAUCUAACAAUAAAGACAAAUCUGCCACAAAGCUUGAGAGCAUCUUCGGAUGCAGAGGCGGCAACCAUCGGUGGCGCGAGAGCGCCAACGAUCUCAAGUAUGACACGCAAAACGCGUGCUCCGUUGAAUGGAGUUUAUCAUG
GGAUCUUCUCAAUCUAACAAACAAGACUAAUCUGCCACAAAACUUGAGAGCAUCUUCGGAUGCAGAGGCGGCAGCCUUCGGUGGCGCGAUAGCGCCAACGUUCUCUACUAUGACACGCAAAUCACGUGCUCCGUUGAAUGGAGUUUAUCAUG
GGAUCUUCUCAAUCUAACAAACAAGACAAAUCUGCCCCAAAGCUUGAGAGCAUCUUCGGAUGCAGAGGCGGCAGCCUUCGGUGGCGCGAUAGCGCGAACGUUCUCCACUAUGACACGCAAAACGCGUGCUCCGUUAAAUGGAGUUUAUCAUG
GGAUCUUCUCAAUCUAACAAACAAGACAAAUCUGCCACAACGCUUGAGAGCAUCUUCGGAUGCAGAGGCGGCAGCCUUCGGUGGCGGGAUAGCGCCAACGUUCUCAACUAUGACACGCAAAACGCGUGCUCCGUUGAAUGGAGUUUAACAUG
GGAUCUUCUCAAUCUAACAAAACAGAUCAAUCUGCCACAAAGCUUGAGAGCAAAUUCGGAUGCAGAGGCGGCAGCCCUCGGUGUCGCGAUAGCGCCAACGUUCUCAACUAUGACACGCAAAACGCGUGCUCCGUUGAAUGGAGUUAAUCAUG
GGAUCUUCUCAAUCUAACAAAAGAGACAAAUCUGCCACAAAGCUUGAGAACAUCUUCGGAUGCAGAGGCGGCAGCCUUCGGUGGCGCGAUAGCGCCAACGUUCUCAACUAUGACACGCAAUACGCGUGCUCCGUUGAAUGGAGUUUAUCAUG
GGAUCUUCUCAAUCUAACAAAAUAGACAAAUCUGCCACAAAGCUUGAGAGCAUCUUCGGAUGCAGCGGCGGCAGCCUUCGGUGGCGCGAUAACGCCAACGUUCUCAACUAUGAUACGCAAAACGAGUGCUCCGUUGAAUGGAGUUUAUCAUG
GGAUCUUCUCAAUCUAACAAAAUAGACAAAUCUGCCACAAAGCUUGAGAGCAACUUGGGAUGCAGAGGCGGUAGCCUUCGGUGGCUCGAUAGCGCCAACGUUCUCAAAUAUGACACGCAAAACGCGUGCUCCGUUGAAUGGAGUUUAUCAUG
GGAUCUUCUCAAUCUAACAAAAACGACUAAUCUGCCACAAAGCUUGAGAGCAUCUUCGGAUGCAGAGGCGGCAGCCUUCGGUGGUGAGAUAGCGCCAACGUUCUCAACUAUGACACGCAAAACGCGUGCUCCGUUGAAUGCAGUUUAUCAUG
GGAUCUUCUCAAUCUAACAAAAACGACAAAUCUGCCACAAAGCUUGCGAGCAUCUUCGGAUGAAGAGGCGGCAGCCGUCGGUGACGCGAUAGCGCCAACGUUCUCAACUAUGACACGCAAAACGCCUGCUCCGUUGAAUGGAGUUUAUCAUG
GGAUCUUCUCAAUCUAACAAAAAGGACAAAUCUGCCACAAAGCUUGAGAGCAUCUUCGGUUGCAGAGGCGGCAGCCUCCGGUGGCGCGAUAACGCCAACAUUCUCAACUAUGACACGCAAAACGCGUGCUCCGUUGAAUGGAGUUUAUCAUG
GGAUCUUCUCAAUCUAACAAAAAUGACAAUUCUGCCACAAAGCUUGAGAGCAUCUGCGGAUGCAGAGGCGGCAGCCUUGGGUCGCGCGAAAACGCCAACGUUCUAAACUAUGACACGCAAAACGCGUGCUCCGUUGACUGGAGUUUAUCAUG
GGAUCUUCUCAAUCUAACAAAAAAGCCAAAUCUGCCACAAGGCUUGAGAGCAUCUUCGGAUGCAGAUAUGGCAGCCUUCGGUGGCGCAAUAGCGCCAACGUUCUCAACUAUGACACGCAAAACGCGUGCUCUGUUGAUUGGAGUUUAUCAUG
GGAUCUUCUCAAUCUAACAAAAAAGGCAAAUCUGCCACAAAGCUUGAGAGCAUCAUCGGAUGCAGAGGCGGCAGCCUUCGGUGGCGAGAUAGCGCCAACGUUCUCAACUAUGACACGCAAAACCCGUGCUCCGUUGAAUGGACUUUACCAUG
GGAUCUUCUCAAUCUAACAAAAAAGUCAAAUCUGCCACAAAGCUUCAGAGCAUCUACGGAUGCAGAGGCGGCAGCCUUCGGUGGCGCGAUAGCGCCAACGUUCUCAACUAUGACACGCAAAACGCGUGCUCCGUUGAAUGGAGUUUAUCAUG
